In all, about 310,000 compounds went through this assay and about 2,200 (0.71%) showed an effect of 50% or more. The effect is printed as a negative number. This is one part of the list.
molecular target: human ether-à-go-go-related gene (hERG) potassium channel (human, UniProt Q12809); test: primary screen, population patch clamp on CHO cells stably expressing hERG
Sequence (Q12809 whole entry, looked up): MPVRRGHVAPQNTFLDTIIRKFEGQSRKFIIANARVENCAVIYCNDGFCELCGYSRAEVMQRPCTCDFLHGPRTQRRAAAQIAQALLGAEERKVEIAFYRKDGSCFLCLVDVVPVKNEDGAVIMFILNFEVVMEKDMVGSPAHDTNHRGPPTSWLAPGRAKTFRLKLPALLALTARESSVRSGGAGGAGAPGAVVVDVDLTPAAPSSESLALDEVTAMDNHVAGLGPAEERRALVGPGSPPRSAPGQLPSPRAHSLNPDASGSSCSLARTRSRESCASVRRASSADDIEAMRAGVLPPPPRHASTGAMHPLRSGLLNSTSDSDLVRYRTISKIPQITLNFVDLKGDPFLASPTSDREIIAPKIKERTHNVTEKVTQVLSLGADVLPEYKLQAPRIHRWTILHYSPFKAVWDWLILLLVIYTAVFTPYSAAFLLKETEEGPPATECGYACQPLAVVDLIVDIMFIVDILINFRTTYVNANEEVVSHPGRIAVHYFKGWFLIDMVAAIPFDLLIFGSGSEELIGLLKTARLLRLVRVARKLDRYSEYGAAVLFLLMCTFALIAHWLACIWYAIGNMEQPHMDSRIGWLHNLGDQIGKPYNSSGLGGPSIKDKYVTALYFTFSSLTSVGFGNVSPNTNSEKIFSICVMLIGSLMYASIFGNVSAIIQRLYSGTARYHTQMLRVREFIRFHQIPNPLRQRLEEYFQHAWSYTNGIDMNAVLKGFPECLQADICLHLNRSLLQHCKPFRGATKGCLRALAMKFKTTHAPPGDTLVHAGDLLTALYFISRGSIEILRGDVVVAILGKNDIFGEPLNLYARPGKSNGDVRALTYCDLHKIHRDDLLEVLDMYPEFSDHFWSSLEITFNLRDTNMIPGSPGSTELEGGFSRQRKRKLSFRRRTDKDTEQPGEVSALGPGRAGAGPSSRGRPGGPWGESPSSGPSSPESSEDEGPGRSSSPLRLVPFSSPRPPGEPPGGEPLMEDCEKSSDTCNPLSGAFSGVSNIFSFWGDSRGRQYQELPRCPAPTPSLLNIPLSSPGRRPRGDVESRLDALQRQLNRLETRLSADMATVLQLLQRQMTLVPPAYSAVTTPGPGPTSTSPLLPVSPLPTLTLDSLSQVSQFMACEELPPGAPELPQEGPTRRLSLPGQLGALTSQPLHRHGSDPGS

SMILES	hERG current change (%, negative = inhibition) at 1uM
O=C(Nc1nnc(-c2ccc(Cl)cc2)o1)NC1CCCCC1	12%
COc1cccc(N2C(=O)NC(=O)/C(=C/c3ccc4c5c(cccc35)CC4)C2=O)c1	6.33%
COCC(C)NC(=O)C(C)Oc1ccccc1 (centres unmarked)	8.59%
Cc1ccc(NC(=O)c2ccc(NS(=O)(=O)c3c(C)noc3C)cc2)cc1C	5.25%
O=C(NC(=S)Nc1ccccc1Br)c1cccnc1	12.6%
CCOc1ccc(Nc2cc(Nc3ccccc3OCC)nc(C=C(C#N)C#N)n2)cc1	14.5%
CCOC(=O)C1CCN(C(=O)Nc2ccc(NC(=O)C3CCN(C(=O)OCC)CC3)cc2)CC1	-24.8%
COc1ccccc1Nc1nc(N)nc(CSc2nc(C)cc(C)n2)n1	7.95%
CC(C)c1nc2ccccn2c1NC1CCCCC1	0.171%
CC1CCC(NC(=O)C2(C)CCC(=O)N2Cc2cccnc2)CC1 (centres unmarked)	13.1%
Cc1cc(NC(=O)Cn2cc(C(F)(F)F)cc(Cl)c2=O)no1	3.77%
COC(=O)[C@H](C)NC(=O)Nc1ccccc1F	3.25%
COC(=O)COc1cccc2c(=O)n(CC(=O)Nc3ccc4c(c3)OCCO4)ccc12	7.47%
O=C(Nc1ccc2nn(-c3ccccc3)nc2c1)c1ccco1	7.8%
Cc1ccc2c(c1)N(CC(=O)NC1CCC(C)CC1)C(=O)CO2 (centres unmarked)	4.88%
O=C(N=Nc1c(O)[nH]c2ccc(Cl)cc12)c1cc(-c2cccs2)nc2ccccc12	13%
O=C(O)c1cnn(-c2ccccc2)c1C(F)(F)F	11.1%
O=C(CN1CCN(Cc2ccccc2Cl)C1=O)NCc1ccccn1	13.7%
CCc1ccc(OCCCC(=O)NCc2ccco2)cc1	12.5%
COc1ccc(-c2nc3ccccc3c(=O)[nH]2)cc1	10.4%
CCOC(=O)NC(=O)C(=CNNc1ncc(C(F)(F)F)cc1Cl)C(=O)NC(=O)OCC	13.9%
C=C(C)C(=O)Nc1cccc(C2=NOC3(C2)C[C@@H](C(N)=O)N(C(=O)c2cc([N+](=O)[O-])cc([N+](=O)[O-])c2C)C3)c1 (some centres unmarked)	11.8%
O=C(Nc1ccccc1)C1C2/C=C\CCCCC21 (centres unmarked)	11.4%

SMILES	hERG current change (%, negative = inhibition) at 1uM
COc1cc(OC)c(/C=N/NC(=O)c2ccc([N+](=O)[O-])cc2)cc1Br	14.8%
CC1=C(C#N)C(NC(=O)C(C)(C)C)(C(F)(F)F)C(=O)N1 (centres unmarked)	6.23%
COc1cccc(/C=N/NC(=O)C(=O)NCc2ccco2)c1O	5.24%
Cn1cccc1C1C(C#N)=C(N)OC2=C1C(=O)CCC2 (centres unmarked)	15.3%
COCCNC(=O)c1cn(C(C)c2ccccc2F)nn1 (centres unmarked)	6.34%
CC1CN(C(=O)c2cc(-c3ccncc3)nc3ccccc23)CC(C)O1 (centres unmarked)	-0.109%
Cc1cc(=O)[nH]c(SCC(=O)NCC2CCCO2)n1 (centres unmarked)	8.68%
O=C1OC(OC(=O)c2ccccc2Br)C(N2CCOCC2)=C1Cl (centres unmarked)	8.79%
CCc1ccccc1OCC(=O)OCC(=O)N1CC(=O)Nc2ccccc21	11%
COc1ccc(CC(=O)Nc2nncs2)cc1OC	12.7%
O=C(NC(Cc1ccccc1)C(=O)O)/C(=C\c1ccc(Br)cc1)NC(=O)c1ccc(Br)o1 (centres unmarked)	5.37%
CCN(CC)c1ccc(NC(=O)CN2CCN(S(=O)(=O)c3cc(Cl)ccc3OC)CC2)cc1	13%
COc1ccc(NC(=O)COC(=O)CCc2ccccc2)c(OC)c1	17.2%
COc1nc(NCc2cccnc2)nc(NC2CCCCC2)n1	4.6%
CCOc1ccc(NC(=O)c2cccc(NC(=O)c3ccccc3)c2)cc1	7.35%
O=C(NCC(c1cccnc1)N1CCN(c2ccccc2)CC1)OCc1ccccc1 (centres unmarked)	-6.26%
Cc1cc(C(=O)CCC(=O)N2CCN(S(=O)(=O)c3cccs3)CC2)c(C)s1	7.51%
CC1CC2(CCCCC2)Nc2c1ccc1ccccc21.Cl (centres unmarked)	15.2%
COCCn1c(SCC(=O)NC2CCCCC2)nc2c(c1=O)SCC2	11.5%
CC(=O)ONC(=Nc1ccccc1)c1nonc1N	14.7%
CN(Cc1ccccc1)C(=O)C1CCC(CNS(=O)(=O)c2cccc3cccnc23)CC1 (centres unmarked)	-5.07%
Cc1ccc(S(=O)(=O)N(CCC(=O)O)Cc2ccc(Cl)cc2)cc1	7.59%
COc1ccc(-c2c(C)oc3c(CN4CCN(CCO)CC4)c(O)ccc3c2=O)cc1OC	17.9%

SMILES	hERG current change (%, negative = inhibition) at 1uM
COc1cc(C2Nc3ccc4ncccc4c3C3=C2C(=O)CCC3)cc(OC)c1OC (centres unmarked)	-5.98%
Nc1c(NCc2ccccc2)c2ccccc2oc1=O	7.13%
O=C(OCCN1C(=O)c2cccc3c(N4CCOCC4)ccc(c23)C1=O)c1ccccc1Cl	9.19%
Cc1cc(C(F)(F)F)nc(SCC(=O)Nc2nccs2)n1	10.9%
Cc1ccc(C)c(NC2CCCCC2NS(=O)(=O)c2ccccc2)c1 (centres unmarked)	17.3%
Cc1onc(-c2ccccc2)c1C(=O)Nc1c(C)n(C)n(-c2ccccc2)c1=O	2.98%
Cc1cc(C)cc(Oc2ccc(N)cc2)c1	3.57%
Nc1ccc(CCNc2ncnc3c2ncn3[C@@H]2O[C@H](CO)[C@@H](O)[C@H]2O)cc1	9.75%
O=P(c1ccccc1)(c1ccccc1)c1nc(-c2ccccc2)oc1N1CCOCC1	6.49%
CCc1nnc(NC(=O)CCC2CCCCC2)s1	4.6%
CN(C)S(=O)(=O)c1cccc(NC(=O)c2cc3c(cc2Cl)N2CCCCCC2=NS3(=O)=O)c1	13.4%
Cc1cccc(OC(=O)c2ccc3nccnc3c2)c1	9.6%
O=C1CC(=Nc2ccccc2)NN1c1ccccc1	19%
O=C(/C=C/c1ccc(F)cc1)Nc1ccc(S(=O)(=O)N2CCOCC2)cc1	13.5%
Cc1noc(NS(=O)(=O)c2ccc(N/C=C/C(=O)c3ccc(F)cc3)cc2)c1C	2.94%
COC(=O)C1=C(C)N(c2ccc(OC)cc2)C(C)=C(C(=O)OC)C1c1ccccc1	13.2%
CC(C(=O)N1c2ccccc2Sc2ccccc21)n1nnc(-c2cccs2)n1 (centres unmarked)	5.49%
Cc1ccc(-n2ncc(-c3nnc(SCC(=O)NC4CCCC4)o3)c2N)cc1C	-3.33%
O=C(c1ccco1)N1CCN(c2ncnc3scc(-c4ccccc4)c23)CC1	-3.06%
Cc1ccc(NC(=O)COC(=O)Cn2cnc3ccccc32)c([N+](=O)[O-])c1	6.89%
Cc1ccc(Cl)cc1NC(=S)N(CCCN1CCN(C)CC1)Cc1ccco1	-2.97%
CCOC(=O)C(=O)c1c(-c2ccc(C)cc2)nc2ccccn12	7.32%
CCc1noc(C)c1C(=O)OCC(=O)NCc1ccccc1OC	12.8%

SMILES	hERG current change (%, negative = inhibition) at 1uM
Cc1csc(NC(=O)C(C)Oc2ccc(Cl)cc2C)n1 (centres unmarked)	14.2%
O=S(=O)(Cc1ccccc1Cl)NCc1ccccc1	12.9%
COc1ccc2cc(C(=O)N3CCN(c4ccccc4F)CC3)[nH]c2c1	11.6%
Cn1c(=O)c([N+](=O)[O-])c(NCCc2ccccc2)c2ccccc21	2.52%
CSCCC(NC(=O)COc1ccccc1)C(=O)N1CCN(c2ccccc2F)CC1 (centres unmarked)	-1.49%
CCc1cccc(C)c1NC(=O)COC(=O)CNS(=O)(=O)/C=C/c1ccccc1	19.1%
Cc1cc(NC(=O)CCC(=O)N(c2cccc(F)c2)C(C(=O)NC2CCCC2)c2ccccc2)no1 (centres unmarked)	18.1%
Cc1ccc(S(=O)(=O)N[C@@H](Cc2ccccc2)C(=O)N2CCC(C(=O)N[C@@H](CC(C)C)C(=O)O)CC2)cc1	17.4%
COc1ccc(NC(=O)c2sc(NC(=O)C3CC3)nc2C)cc1	2.78%
c1cc2c3c(cccc3c1)NC1(CCCCC1)N2	13.4%
CCOC(=O)C1CC(=O)c2cc(OC)c(OC)cc2C1 (centres unmarked)	7.84%
Cn1cccc1C(=O)NC(=O)COC(=O)CC12CC3CC(CC(C3)C1)C2	10.4%
CC1C/C(=N\NC(N)=S)c2cc(Cl)ccc2S1 (centres unmarked)	12.6%
CCOC(=O)CSc1nnc(CNC(=O)c2ccc(OC)cc2)n1C1CCCCC1	1.03%
Cc1ccc(NC(=O)CN(C)C(=O)C2COc3ccccc3O2)cc1 (centres unmarked)	16.1%
S=c1[nH]nc(COc2ccccc2)n1/N=C/C(Cl)=C/c1ccccc1	11.3%
N#Cc1ccccc1NS(=O)(=O)c1cc2c3c(c1)CCN3C(=O)CC2	11.6%
CCC[N+]1(CC#CC2(O)CCCCC2)CCOCC1.[I-]	5.18%
COc1cccc(NC(=S)N2CCCC2)c1	14.3%
CS(=O)(=O)c1nc2ccccc2n1Cc1ccccc1	0.66%
